From the supplement of paper PMC3334620
Whole data set: some 33,000 sequences, median “E-score (-0.5 to 0.5)” near -0.053, cut for the highest 2% near 0.37. The list shows a part of the results.

Target: Hap1 (UniProt P0CE41)
Assay: PBM E-score (8-mer binding enrichment) (E-score (-0.5 to 0.5)); higher = stronger / more preferred TF binding; most listed sequences are background and not binding sites
Conditions: protein concentration: 200 nM; construct: GST-DNA-binding domain
In short: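 Universal all-10-mer Agilent arrays, fresh or stripped once, were converted to double-stranded form by primer extension. GST-tagged yeast transcription factors from PURExpress in vitro transcription/translation, full-length or DNA-binding domain only, were applied at about 100-200 nM and detected with fluorescent anti-GST. After masliner normalisation, the Universal PBM Analysis Suite scored each ungapped eight-base word together with its reverse complement by E-score.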

UniProt P0CE41, sequence (P0CE41 whole entry): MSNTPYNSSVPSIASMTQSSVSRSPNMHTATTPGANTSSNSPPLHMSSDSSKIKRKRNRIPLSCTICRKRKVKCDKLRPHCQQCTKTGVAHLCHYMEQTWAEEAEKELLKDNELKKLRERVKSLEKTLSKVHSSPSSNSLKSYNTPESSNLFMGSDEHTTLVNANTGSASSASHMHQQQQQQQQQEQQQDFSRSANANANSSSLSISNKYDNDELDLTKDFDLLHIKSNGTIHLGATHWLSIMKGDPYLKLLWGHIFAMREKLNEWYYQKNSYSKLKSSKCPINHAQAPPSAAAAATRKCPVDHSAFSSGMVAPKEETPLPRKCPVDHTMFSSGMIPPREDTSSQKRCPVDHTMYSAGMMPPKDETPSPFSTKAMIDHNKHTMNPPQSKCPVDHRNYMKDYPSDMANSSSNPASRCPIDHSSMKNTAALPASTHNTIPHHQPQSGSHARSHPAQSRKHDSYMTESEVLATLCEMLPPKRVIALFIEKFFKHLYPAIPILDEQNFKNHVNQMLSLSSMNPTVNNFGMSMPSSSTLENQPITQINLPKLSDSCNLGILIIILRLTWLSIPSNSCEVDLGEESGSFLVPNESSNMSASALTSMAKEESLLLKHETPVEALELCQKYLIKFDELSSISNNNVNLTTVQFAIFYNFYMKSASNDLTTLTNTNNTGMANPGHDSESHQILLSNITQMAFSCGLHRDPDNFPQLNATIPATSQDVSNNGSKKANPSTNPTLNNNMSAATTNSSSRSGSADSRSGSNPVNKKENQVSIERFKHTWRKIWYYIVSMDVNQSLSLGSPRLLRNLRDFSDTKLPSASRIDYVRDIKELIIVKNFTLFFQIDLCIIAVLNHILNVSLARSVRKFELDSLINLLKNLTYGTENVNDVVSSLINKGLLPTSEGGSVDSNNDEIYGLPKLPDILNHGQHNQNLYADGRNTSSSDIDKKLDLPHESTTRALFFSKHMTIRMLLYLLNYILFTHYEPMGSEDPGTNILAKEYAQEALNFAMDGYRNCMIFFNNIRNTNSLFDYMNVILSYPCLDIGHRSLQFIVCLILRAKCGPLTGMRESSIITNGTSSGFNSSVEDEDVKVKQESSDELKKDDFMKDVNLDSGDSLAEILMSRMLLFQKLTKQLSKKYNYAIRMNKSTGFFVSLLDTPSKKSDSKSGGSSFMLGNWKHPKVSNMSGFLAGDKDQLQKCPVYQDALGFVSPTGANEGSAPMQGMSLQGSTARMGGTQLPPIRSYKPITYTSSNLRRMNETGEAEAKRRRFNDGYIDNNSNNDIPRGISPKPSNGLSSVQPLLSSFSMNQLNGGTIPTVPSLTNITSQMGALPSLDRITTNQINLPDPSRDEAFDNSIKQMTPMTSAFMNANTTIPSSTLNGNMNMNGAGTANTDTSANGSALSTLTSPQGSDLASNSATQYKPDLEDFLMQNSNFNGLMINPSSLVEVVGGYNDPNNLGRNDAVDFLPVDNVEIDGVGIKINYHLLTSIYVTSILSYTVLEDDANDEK

| Sequence | PBM E-score |
| --- | --- |
| GGGGTGAC | -0.129 |
| CTGAGTTC | -0.0173 |
| CTCACTCC | -0.0331 |
| GCACGCGA | 0.0534 |
| CTAAGTCC | 0.265 |
| CCGCAAAC | 0.17 |
| TACCCAAA | -0.178 |
| CTATAGGC | -0.0955 |
| CTTGAAAG | -0.156 |
| CCACCGAG | 0.14 |
| GCGCGAGC | 0.0922 |
| ACACTATG | -0.127 |
| ACTTGTAT | -0.181 |
| GGGCAACC | -0.0855 |
| AGCTCAAG | -0.298 |
| ACGAGGTA | 0.0113 |
| AAATATTA | 0.0284 |
| CCGTCGAA | 0.0717 |
| ATCAATCC | 0.00642 |
| CCGATTGC | 0.29 |
| CATATTTC | 0.00746 |
| CAACAATG | -0.0888 |
| CGTTCCCA | -0.2 |
| CCCCATAG | -0.0346 |
| GTGGACAC | -0.102 |

| Sequence | PBM E-score |
| --- | --- |
| AGCATCAG | -0.0904 |
| ATAGTCCA | -0.114 |
| GACCGGCA | 0.232 |
| GTGATGAA | -0.184 |
| ACCTACAC | -0.376 |
| TCCCAAGA | -0.143 |
| GTAATGCA | -0.106 |
| CGAACGGA | 0.342 |
| AATAATGT | -0.0855 |
| CACATGAC | -0.292 |
| AAAAGCTG | -0.191 |
| ACAAACAT | -0.0916 |
| CCAGAGTC | -0.202 |
| GTAACGCA | 0.0607 |
| ACACGGGT | -0.137 |
| ATTCAGTA | -0.0456 |
| ATGTCTTA | -0.306 |
| CCAGCTAA | -0.215 |
| GAGTACAA | 0.0916 |
| ATAGTGAA | -0.165 |
| CCCGAGCA | 0.198 |
| CGGACAAC | 0.353 |
| CCAAGTGC | -0.0742 |
| GACCCGGA | 0.353 |
| GACATGGC | -0.0735 |

| Sequence | PBM E-score |
| --- | --- |
| CATACCCG | 0.204 |
| GGAATCAA | 0.103 |
| ACACGCCC | 0.122 |
| GGCCGAGA | 0.401 |
| TGCTGGAA | 0.107 |
| ACCTTGCC | -0.132 |
| ACGCCAAC | -0.0987 |
| GGCGTTGA | -0.0688 |
| CAACACAG | -0.266 |
| GTTACTGA | 0.122 |
| AGAACACG | -0.0087 |
| AACGCGTA | -0.00426 |
| CGATTTAG | 0.204 |
| GGCACTAC | 0.0847 |
| AAGTCGGT | 0.155 |
| GCGCTAAA | 0.124 |
| GTTCGTTA | -0.0084 |
| CGGTTGAG | 0.18 |
| GAGTCGCC | -0.0011 |
| ACTATTCC | 0.211 |
| ATGTGCGG | 0.126 |
| GGTACTGA | -0.0588 |
| AAATATTC | -0.156 |
| GGGTAACC | 0.0115 |
| CGAGTAAA | 0.0895 |

| Sequence | PBM E-score |
| --- | --- |
| AAATAGAA | -0.053 |
| GTCTGGGA | -0.222 |
| CCCTTGGC | -0.162 |
| CGCGTTTC | 0.0153 |
| AGCGGTGC | -0.0766 |
| GATATTAC | 0.226 |
| CATGCAGA | -0.194 |
| AATCGTAT | -0.118 |
| AGCGGCAC | -0.0478 |
| CTAGGCTA | -0.167 |
| AGGTGTAG | -0.28 |
| AGTAACCA | -0.0693 |
| AACCACTC | -0.141 |
| CGAGCGAC | -0.0236 |
| AAGCATCT | -0.171 |
| CCCTATCA | -0.103 |
| ACAATTGT | -0.208 |
| ACCTATGA | -0.162 |
| ACCGGAAG | 0.333 |
| AGAGCTAT | -0.273 |
| CATCCCTA | 0.0059 |
| CCTACTGC | -0.147 |
| GTCTACAC | -0.199 |
| AACTAACA | -0.0716 |
| AATATCCG | 0.414 |

| Sequence | PBM E-score |
| --- | --- |
| GTCAGTAA | -0.103 |
| CAGTATTA | -0.0769 |
| ACGAGAAT | -0.117 |
| AATTGACC | 0.0984 |
| CGCACTAG | -0.0312 |
| CTATCCCC | 0.24 |
| CGCTCTAG | -0.0716 |
| CAGGACGA | -0.0578 |
| AGGTTCCC | -0.126 |
| AAACTGCA | -0.152 |
| AAGTAGGG | -0.153 |
| CAACCTAC | -0.0175 |
| AACTTTTC | -0.123 |
| AACTGGGC | -0.0448 |
| AGGGCCGG | 0.326 |
| AACATCCC | 0.173 |
| GGGACGCA | -0.212 |
| CCCGTGGC | 0.123 |
| GCCACCTA | -0.22 |
| AATCCAAA | -0.017 |
| CATGGGCA | -0.15 |
| GTGCAGCA | -0.0592 |
| AATTCACG | -0.0684 |
| GCTGTTCA | -0.216 |
| ACAGAATA | -0.143 |

| Sequence | PBM E-score |
| --- | --- |
| GAATACAC | -0.128 |
| GCAAGTGA | -0.229 |
| TAGGACAA | -0.3 |
| AGGTTACA | -0.195 |
| ATTAGCCA | -0.288 |
| CCGGGGAC | 0.27 |
| GTCTATCA | -0.185 |
| ACCTCGAA | -0.135 |
| ACAGGAAA | 0.0484 |
| ACATGATA | -0.108 |
| GGGCTTAC | 0.214 |
| AAGGTGTG | -0.236 |
| CCCCTCAA | 0.0393 |
| GTACCCCA | 0.00205 |
| CTACGTCC | 0.285 |
| ACAGGGCT | -0.257 |
| ACATTACC | 0.106 |
| ACGTAGCC | -0.0937 |
| ATTTAAGA | -0.164 |
| TAAGGCAA | -0.0478 |
| ATACCTTA | -0.0965 |
| TCAGGCCA | -0.114 |
| AGTGTTAG | -0.0935 |
| AGTCATTG | -0.248 |
| CCACGGCA | 0.0838 |

| Sequence | PBM E-score |
| --- | --- |
| GGCTGTCA | -0.214 |
| ACAGGGAG | -0.174 |
| CCGAACTC | 0.2 |
| AGTGCAGG | -0.175 |
| AGATACCA | 0.0223 |
| ACTCTCAT | -0.064 |
| AGCGGAAA | 0.318 |
| CCATGTAA | 0.142 |
| CACCGAAA | 0.261 |
| CTCACAGC | -0.165 |
| ATCTGCGG | 0.253 |
| ACCAATTG | -0.262 |
| AAATCCTA | 0.0544 |
| AGAACCGG | 0.35 |
| ACGCCTCC | 0.00213 |
| ATCCCCAG | -0.0923 |
| AGGGGGAG | -0.227 |
| AGCCGTTG | 0.0608 |
| ACTGAAGA | -0.0804 |
| ATCTGAAT | -0.155 |
| CCCGGCGC | 0.291 |
| CCGTTGCC | 0.299 |
